In PubChem BioAssay (NCI) one finds GI50 and TGI data, which are given here for three molecules.

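Grown in 96-well plates, cells were treated for 48 hours with each compound at five concentrations. Insufficient inhibition: endpoint recorded as highest concentration tested. Abbreviation: GI50, concentration required for 50% inhibition of growth. TGI: concentration producing complete growth inhibition.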 A value given as a limit tells only on which side of the number the result lay.

As usually defined, the GI50 is the concentration at which growth is held to half of that of the control. Usually TGI stands for the concentration at which net growth stops.

This experiment deals with NCI-H322M lung. The experiment in a line: DTP human tumour cell line panel, 48 h.
As to `O=C(CN1CCOCC1)NNc1ncnc2ccccc12`, the GI50 is 16.5 µM and the total growth inhibition concentration (TGI) came out at 30.3 µM.
For the molecule `O=C(Nc1cccc(C(F)(F)F)c1)c1cc(-c2ccc(F)cc2F)ccc1O`, the GI50 is 2.76 µM and the TGI was found to be 9.53 µM.
With `C#C[C@]1(O)CC[C@H]2[C@@H]3CC=C4c5sc(Nc6cc(Cl)ccn6)nc5CC[C@]4(C)[C@H]3CC[C@@]21C`, the GI50 is 2.59 µM and the TGI was greater than 20.1 µM.
